# Test results from patent US8129380B2, “Phthalazinone derivatives” (AstraZeneca AB, priority 2008, dated 2012).
# Target: Mammalian PARP, isolated from Hela cell nuclear extract (Homo sapiens, UniProt P09874)
# Test: PARP inhibitory action (FlashPlate 3H-NAD assay)
# Assay type: biochemical
# Details: 30° C., NAD 5 μM
# Protocol: In order to assess the inhibitory action of the compounds, the following assay was used to determine IC50 values.
# The total assay volume per well was 40 μl.
# After 10 minutes incubation at 30° C. the reactions were initiated by the addition of a 10 μl reaction mixture, containing NAD (5 μM), ^3H-NAD and 30 mer double stranded DNA-oligos. Designated positive and negative reaction wells were done in combination with compound wells (unknowns) in order to calculate % enzyme activities. The plates were then shaken for 2 minutes and incubated at 30° C. for 45 minutes.
# Following the incubation, the reactions were quenched by the addition of 50 μl 30% acetic acid to each well. The plates were then shaken for 1 hour at room temperature.
# The plates were transferred to a TopCount NXT (TRADE MARK) (Packard, UK) for scintillation counting. Values recorded are counts per minute (cpm) following a 30 second counting of each well.
# The % enzyme activity for each compound is then calculated using the following equation: […]
# IC50 values (the concentration at which 50% of the enzyme activity is inhibited) were calculated, which are determined over a range of different concentrations, normally from 10 μM down to 0.001 μM. Such IC50 values are used as comparative values to identify increased compound potencies.
# Sequence of UniProt P09874 (P09874 whole entry): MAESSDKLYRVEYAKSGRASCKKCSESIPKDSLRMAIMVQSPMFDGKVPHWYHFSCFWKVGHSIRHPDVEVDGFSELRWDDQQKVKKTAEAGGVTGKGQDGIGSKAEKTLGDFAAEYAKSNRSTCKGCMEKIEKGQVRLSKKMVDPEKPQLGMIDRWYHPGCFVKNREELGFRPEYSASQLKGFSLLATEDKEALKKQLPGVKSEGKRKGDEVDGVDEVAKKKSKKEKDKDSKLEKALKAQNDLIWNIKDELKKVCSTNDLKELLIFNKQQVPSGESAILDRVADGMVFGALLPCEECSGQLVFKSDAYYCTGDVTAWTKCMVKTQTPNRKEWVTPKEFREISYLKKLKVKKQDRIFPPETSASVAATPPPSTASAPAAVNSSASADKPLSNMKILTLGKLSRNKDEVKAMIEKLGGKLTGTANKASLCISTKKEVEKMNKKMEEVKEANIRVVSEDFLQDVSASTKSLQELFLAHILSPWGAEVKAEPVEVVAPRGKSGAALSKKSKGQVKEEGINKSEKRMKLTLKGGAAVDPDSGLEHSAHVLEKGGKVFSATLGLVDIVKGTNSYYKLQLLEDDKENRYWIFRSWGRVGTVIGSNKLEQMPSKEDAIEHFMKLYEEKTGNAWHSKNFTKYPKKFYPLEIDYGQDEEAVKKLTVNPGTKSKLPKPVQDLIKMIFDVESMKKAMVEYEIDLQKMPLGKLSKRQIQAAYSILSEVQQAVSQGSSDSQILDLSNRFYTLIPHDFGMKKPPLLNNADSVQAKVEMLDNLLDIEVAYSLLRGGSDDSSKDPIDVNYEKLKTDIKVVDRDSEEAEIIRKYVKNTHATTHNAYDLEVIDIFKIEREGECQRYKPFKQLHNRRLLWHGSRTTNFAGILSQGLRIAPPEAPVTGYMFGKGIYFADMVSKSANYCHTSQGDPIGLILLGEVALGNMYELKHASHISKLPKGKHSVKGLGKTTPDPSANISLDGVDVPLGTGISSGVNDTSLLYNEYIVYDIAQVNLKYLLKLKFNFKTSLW
row,Compound,IC50
1,"O=C(COC1CCN(C(=O)c2cc(Cc3n[nH]c(=O)c4ccccc34)ccc2F)CC1)N1CC(F)(F)C1 [Compound 89, 4-(3-(4-(2-(3,3-difluoroazetidin-1-yl)-2-oxoethoxy)piperidine-1-carbonyl)-4-fluorobenzyl)phthalazin-1(2H)-one]",7 nM
2,"O=C(COC1CCN(C(=O)c2cc(Cc3n[nH]c(=O)c4ccccc34)ccc2F)CC1)N1CCOCC1 [Compound 77, 4-(4-fluoro-3-(4-(2-morpholino-2-oxoethoxy)piperidine-1-carbonyl)benzyl)phthalazin-1(2H)-one]",8 nM
3,"COC[C@H](C)OC1CCN(C(=O)c2cc(Cc3n[nH]c(=O)c4ccccc34)ccc2F)CC1 [Compound 93, (S)-4-(4-fluoro-3-(4-(1-methoxypropan-2-yloxy)piperidine-1-carbonyl)benzyl)phthalazin-1(2H)-one]",8 nM
4,"O=C(c1cc(Cc2n[nH]c(=O)c3ccccc23)ccn1)N1CCC(OC2CCCC2)CC1 [Compound 40, 4-((2-(4-(cyclopentyloxy)piperidine-1-carbonyl)pyridin-4-yl)methyl)phthalazin-1(2H)-one]",6 nM
5,"O=C(c1cc(Cc2n[nH]c(=O)c3ccccc23)ccc1F)N1CCC(O)CC1 [Compound 2a, 4-(4-fluoro-3-(4-hydroxypiperidine-1-carbonyl)benzyl)phthalazin-1(2H)-one]",7 nM
6,"CN(C)CCOC1CCN(C(=O)c2cc(Cc3n[nH]c(=O)c4ccccc34)ccc2F)CC1 [Compound 86, 4-(3-(4-(2-(dimethylamino)ethoxy)piperidine-1-carbonyl)-4-fluorobenzyl)phthalazin-1(2H)-one]",18 nM
7,"O=C(c1cc(Cc2n[nH]c(=O)c3ccccc23)ccc1F)N1CCC(OCCN2CCCCC2)CC1 [Compound 116, 4-(4-fluoro-3-(4-(2-(piperidin-1-yl)ethoxy)piperidine-1-carbonyl)benzyl)phthalazin-1(2H)-one]",46 nM
8,"CN(C)C(=O)COC1CCN(C(=O)c2cc(Cc3n[nH]c(=O)c4ccccc34)ccc2F)CC1 [Compound 83, 2-(1-(2-fluoro-5-((4-oxo-3,4-dihydrophthalazin-1-yl)methyl)benzoyl)piperidin-4-yloxy)-N,N-dimethylacetamide]",14 nM
9,"O=C(O)COC1CCN(C(=O)c2cc(Cc3n[nH]c(=O)c4ccccc34)ccc2F)CC1 [Compound 90, 2-(1-(2-fluoro-5-((4-oxo-3,4-dihydrophthalazin-1-yl)methyl)benzoyl)piperidin-4-yloxy)acetic acid]",9 nM
10,"COC1CCN(C(=O)c2cc(Cc3n[nH]c(=O)c4ccc(Cl)cc34)ccc2F)CC1 [Compound 68, 6-chloro-4-(4-fluoro-3-(4-methoxypiperidine-1-carbonyl)benzyl)phthalazin-1(2H)-one]",24 nM
11,"COC1CCN(C(=O)c2cc(Cc3n[nH]c(=O)c4c[nH]c(C)c34)ccc2F)CC1 [Compound 63, 4-(4-fluoro-3-(4-methoxypiperidine-1-carbonyl)benzyl)-5-methyl-2,6-dihydro-1H-pyrrolo[3,4-d]pyridazin-1-one]",69 nM
12,"CC(C)(C)OC1CCN(C(=O)c2cc(Cc3n[nH]c(=O)c4ccccc34)ccn2)CC1 [Compound 73, 4-((2-(4-tert-butoxypiperidine-1-carbonyl)pyridin-4-yl)methyl)phthalazin-1(2H)-one]",5 nM
13,CC(C)OC1CCN(C(=O)c2cccc(Cc3n[nH]c(=O)c4ccccc34)c2)CC1 [Compound 12],7 nM
14,"CC1(O)CCN(C(=O)c2cc(Cc3n[nH]c(=O)c4ccccc34)ccc2F)CC1 [Compound 74, 4-(4-fluoro-3-(4-hydroxy-4-methylpiperidine-1-carbonyl)benzyl)phthalazin-1(2H)-one]",8 nM
15,"Cc1cccc(OC2CCN(C(=O)c3cc(Cc4n[nH]c(=O)c5ccccc45)ccc3F)CC2)n1 [Compound 39, 4-(4-fluoro-3-(4-(6-methylpyridin-2-yloxy)piperidine-1-carbonyl)benzyl)phthalazin-1(2H)-one]",5 nM
16,"COC1CCN(C(=O)c2cc(Cc3n[nH]c(=O)c4c(C)n(C)c(C)c34)ccc2F)CC1 [Compound 60, 4-(4-fluoro-3-(4-methoxypiperidine-1-carbonyl)benzyl)-5,6,7-trimethyl-2,6-dihydro-1H-pyrrolo[3,4-d]pyridazin-1-one]",26 nM
17,C=CCOC1CCN(C(=O)c2cc(Cc3n[nH]c(=O)c4ccccc34)ccc2F)CC1 [Compound 16],6 nM
18,"O=C(COC1CCN(C(=O)c2cc(Cc3n[nH]c(=O)c4ccccc34)ccc2F)CC1)N1CCCCC1 [Compound 113, 4-(4-fluoro-3-(4-(2-oxo-2-(piperidin-1-yl)ethoxy)piperidine-1-carbonyl)benzyl)phthalazin-1 (2H)-one]",8 nM
19,"O=C(c1cc(Cc2n[nH]c(=O)c3ccccc23)ccc1F)N1CCC(OCCN2CCOCC2)CC1 [Compound 80, 4-(4-fluoro-3-(4-(2-morpholinoethoxy)piperidine-1-carbonyl)benzyl)phthalazin-1(2H)-one]",11 nM
20,"CC(C)OC1CCN(C(=O)c2cc(Cc3n[nH]c(=O)c4ccccc34)ccn2)CC1 [Compound 25, 4-[[2-(4-propan-2-yloxypiperidine-1-carbonyl)pyridin-4-yl]methyl]-2H-phthalazin-1-one]",7 nM

# Other lines, results leading:
row,IC50,Compound
1,1740 nM,Cc1ccc(OC2CCN(C(=O)c3cc(Cc4n[nH]c(=O)c5ccccc45)ccc3F)CC2)nc1 [Compound 72c]
2,6 nM,"COc1cccc2c(=O)[nH]nc(Cc3ccc(F)c(C(=O)N4CCC(OC)CC4)c3)c12 [Compound 126a, 4-(4-fluoro-3-(4-methoxypiperidine-1-carbonyl)benzyl)-5-methoxyphthalazin-1(2H)-one]"
3,7 nM,O=C(c1cc(Cc2n[nH]c(=O)c3ccccc23)ccn1)N1CCC(Oc2ccc(F)cc2)CC1 [Compound 6b]
4,5 nM,"COC1CCN(C(=O)c2cc(Cc3n[nH]c(=O)c4ccccc34)ccc2F)CC1 [Compound 2b, 4-(4-fluoro-3-(4-methoxypiperidine-1-carbonyl)benzyl)phthalazin-1(2H)-one]"
5,5 nM,N#Cc1ccnc(OC2CCN(C(=O)c3cc(Cc4n[nH]c(=O)c5ccccc45)ccc3F)CC2)c1 [Compound 26f]
6,23 nM,"COC1CCN(C(=O)c2cc(F)cc(Cc3n[nH]c(=O)c4cccc(Cl)c34)c2)CC1 [Compound 129b, 5-chloro-4-(3-fluoro-5-(4-methoxypiperidine-1-carbonyl)benzyl)phthalazin-1(2H)-one]"
7,6 nM,"CCOC1CCN(C(=O)c2cc(Cc3n[nH]c(=O)c4cccc(OC)c34)ccc2F)CC1 [Compound 126b, 4-(3-(4-ethoxypiperidine-1-carbonyl)-4-fluorobenzyl)-5-methoxyphthalazin-1(2H)-one]"
8,6 nM,O=C(c1cc(Cc2n[nH]c(=O)c3ccccc23)ccc1F)N1CCC(Oc2cnccn2)CC1 [Compound 26d]
9,5 nM,Cc1cnc(C)c(OC2CCN(C(=O)c3cc(Cc4n[nH]c(=O)c5ccccc45)ccc3F)CC2)n1 [Compound 26j]
10,3 nM,Cc1nccnc1OC1CCN(C(=O)c2cc(Cc3n[nH]c(=O)c4ccccc34)ccc2F)CC1 [Compound 26h]
11,7 nM,O=C(c1cc(Cc2n[nH]c(=O)c3ccccc23)ccc1F)N1CCC(Oc2ccc(Cl)nc2)CC1 [Compound 26m]
12,2 nM,Cc1cnc(OC2CCN(C(=O)c3cc(Cc4n[nH]c(=O)c5ccccc45)ccc3F)CC2)c(C)n1 [Compound 26i]
13,13 nM,O=C(c1cccc(Cc2n[nH]c(=O)c3c(F)ccc(F)c23)c1)N1CCC(OCC2CC2)CC1 [Compound 4a]
14,5 nM,O=C(c1cccc(Cc2n[nH]c(=O)c3c(F)ccc(F)c23)c1)N1CCC(Oc2ccccn2)CC1 [Compound 4b]
15,30 nM,"COC1CCN(C(=O)c2cccc(Cc3n[nH]c(=O)c4ccccc34)c2)CC1 [Compound 47b, 4-(3-(4-methoxypiperidine-1-carbonyl)benzyl)phthalazin-1(2H)-one]"
16,4 nM,"O=C(c1cc(Cc2n[nH]c(=O)c3ccccc23)ccc1F)N1CCC(Oc2ccncn2)CC1 [Compound 26a, 4-(4-fluoro-3-(4-(pyrimidin-4-yloxy)piperidine-1-carbonyl)benzyl)phthalazin-1(2H)-one]"
17,16 nM,CC(C)COC1CCN(C(=O)c2cccc(Cc3n[nH]c(=O)c4c(F)ccc(F)c34)c2)CC1 [Compound 4c]
18,10 nM,"CCOC1CCN(C(=O)c2cccc(Cc3n[nH]c(=O)c4ccccc34)c2)CC1 [Compound 47a, 4-(3-(4-ethoxypiperidine-1-carbonyl)benzyl)phthalazin-1(2H)-one]"
19,55 nM,"CCOC1CCN(C(=O)c2cccc(Cc3n[nH]c(=O)c4c(C)[nH]c(C)c34)c2)CC1 [Compound 52b, 4-(3-(4-ethoxypiperidine-1-carbonyl)benzyl)-5,7-dimethyl-2,6-dihydro-1H-pyrrolo[3,4-d]pyridazin-1-one]"
20,6 nM,O=C(c1cc(Cc2n[nH]c(=O)c3ccccc23)ccc1F)N1CCC(Oc2ncccn2)CC1 [Compound 26e]
21,10 nM,O=C(c1cc(Cc2n[nH]c(=O)c3ccccc23)ccn1)N1CCC(Oc2ccncc2)CC1 [Compound 6e]
22,664 nM,"Cc1cccnc1OC1CCN(C(=O)c2cc(Cc3n[nH]c(=O)c4ccccc34)ccc2F)CC1 [Compound 72a, 4-[[4-fluoro-3-[4-(3-methylpyridin-2-yl)oxypiperidine-1-carbonyl]phenyl]methyl]-2H-phthalazin-1-one]"
